Source: PubChem BioAssay AID1963576 (National Center for Advancing Translational Sciences (NCATS), 2024)
Among all 46,000 compounds or so, about 60 (0.1%) were called active. Inconclusive results (about 3%) are left out. Calls come from the whole dose curve; as a rule, active = well fitted inhibition curve with a large enough effect; inconclusive = small, poorly fitted or top-dose-only effect; inactive = no such curve, though single readings can be large or run the other way. The list shows a part of the results.

Experiment: Primary qHTS assay for Inhibitors of ovarian cancer metastasis using an organotypic tumor microenvironment (TME) model.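 For activity change, negative = inhibition: plate controls were DMSO wells for no effect and tomatine positive control wells for full effect.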 Note: nearly all actives have a fitted effect of over 65% in size.
Details: SKOV3ip1-GFP adhesion/invasion on 3D omental model, fluorescence; series mostly up to 45.8 µM; activity change, negative = inhibition: at the top concentration
Summary of the method: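 qHTS, 4-pt dose (0.36-46 umol/L); SKOV3ip1-GFP, 1,200 cells/well, no FBS; primary omental fibroblast/mesothelial co-culture 48 h pre-grown; 2 h RT + 16 h 37 C; PBS wash, 4% PFA; GFP count 488/509 nm.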

Activity change, negative = inhibition, inactive:
CCOC(=O)c1cc(-c2ccccc2)n(CC(=O)NCc2ccccc2)c1C 8.59%
COc1ccc(-c2nc3sc(CCNC(=O)C(=O)Nc4ccc(C)c(C)c4)c(C)n3n2)cc1 1.69%
CCOc1ccccc1CNC(=O)c1cc2c(=O)n(Cc3ccco3)ccc2nc1C -21.6%
CCOc1ccc(-c2nonc2NC(=O)c2ccco2)cc1OCC -3.07%
CCOC(=O)c1ccc(NC(=O)CC2C(=O)N(c3cccc(C)c3)C(=O)N2CCOC)cc1 (stereo not given) 1.57%
CC(C)c1ccc(NC(=O)c2cnc3sc(N4CCCC4)nn3c2=O)cc1 17.4%
Cc1ccc(OCC(=O)Nc2nnc(SCc3cc(=O)n4cccc(C)c4n3)s2)cc1 -1.59%
CCOc1cc(CNC(=O)NC2COc3ccccc3C2)cc(OCC)c1OCC (stereo not given) -2.96%
COc1ccc(OC)c(-c2csc(-c3c(N)c(C(=O)c4ccc(Cl)cc4)n4ccccc34)n2)c1 -8.19%
CCc1cccc(NC(c2ccccc2)c2nnc(-c3ccccc3F)o2)c1 (stereo not given) 4.11%
COc1cccc(CNC(=O)c2cc3c(=O)n(Cc4cccnc4)ccc3nc2C)c1 -18.4%
Cc1ccc(NC(=O)CSc2nc3c(sc4ccccc43)c(=O)n2CCCC(=O)NC2CCCC2)cc1C -9.21%
COc1ccc(C(=O)Nc2nnc(S(=O)(=O)N(C)c3ccc(C)cc3)s2)cc1 -6.06%
COc1ccc(C(=O)Nc2nnc(S(=O)(=O)N3CCN(c4ccc(F)cc4)CC3)s2)cc1 0.487%
CCc1ccccc1Nc1ncnc2c1cnn2-c1ccc(C)cc1C 4.61%
COc1ccccc1CNC(=O)CN(c1ccccc1OC)S(C)(=O)=O 9.97%
CCOC(=O)c1c(C)[nH]c(C)c1S(=O)(=O)N1CCCC(C(=O)NCc2ccccc2Cl)C1 (stereo not given) -4.1%
Cc1ccc2c(c1)Cc1c(nc(-c3ccc(F)cc3)nc1SCC(=O)N1CCCCC1)O2 1.47%
CCCc1cc(=O)oc2c(C)c3c(cc12)CN(CCc1ccc(Cl)cc1)CO3 1.58%
Cc1ccc2oc(-c3cc(NC(=O)CC(C)C)ccc3Cl)nc2c1 -7.84%
CC[C@H](Nc1ncnc2nc[nH]c12)c1nc2cccc(F)c2c(=O)n1-c1ccccc1 -12.4%
Cc1ccc(Nc2c(-c3cccnc3)nc3ccc(Cl)cn23)cc1 6.66%
O=C(Nc1ccc(Cl)cc1)c1ccc(-n2cnnc2)cc1 8.67%
O=C(COCc1cc(-c2cccs2)on1)NCc1ccc(F)cc1 -1.73%
CC(C)c1ccc(NC(=O)C2CCCN2S(=O)(=O)c2ccc3nc(-c4ccccc4)[nH]c3c2)cc1 (stereo not given) 3.92%
CCc1cc(=O)[nH]c(SCc2nc(-c3cccc(Cl)c3)no2)n1 14.5%
Cc1ccc(-n2ncc3c(N4CCN(Cc5ccccc5)CC4)ncnc32)cc1Cl -17.7%
Cc1ccc(Cl)cc1N1CCN(S(=O)(=O)c2ccc3c(c2)C(C(C)C)C(=O)N3)CC1 (stereo not given) 2.75%
CCCc1nnc(NC(=O)Cc2coc3c(C)c(C)ccc23)s1 0.634%
O=S(=O)(c1ccc(-c2csc(=Nc3ccc(F)cc3)n2CCCCCCO)cc1)N1CCCC1 -12.4%
Cc1cccc(OCC(=O)Nc2ccc3c(c2)nc(CN2CCCCC2)n3C)c1 2.85%
COc1ccc(C(=O)N(Cc2sccc2C)C2CCS(=O)(=O)C2)cc1 (stereo not given) -11.2%
Cn1c(C(=O)NCCc2ccccc2)cc2sc(Cl)cc21 0.555%
Cc1ccc(CNC(=O)CSc2nc3ccsc3c(=O)n2-c2ccc(Br)cc2)cc1 15.5%
Cc1nc(C)c(-c2ccc(SCC(=O)Nc3cccc(C)c3C)nn2)s1 -9.37%
Cc1ccc(-n2ncc(C(=O)NCCN3CCN(C)CC3)c2C2CCN(C(=O)OC(C)(C)C)CC2)cc1 -8%
CCOc1ccc(CNC(=O)CN2N=C(c3ccccc3)CCC2=O)cc1OC -5.58%
CCc1ccc(C2C(C(=O)Nc3ccccc3OC)=C(C)Nc3nc(SCc4ccccc4)nn32)cc1 (stereo not given) -3.83%
CCC1Oc2ccc(C)cc2N(CC(=O)N2CCN(c3ccccc3OC)CC2)C1=O (stereo not given) 7.91%
CCOc1ccc(Nc2nc(C)c(NC(=O)c3cccc(F)c3)c(Nc3ccc(OCC)cc3)n2)cc1 -8.03%
COc1cccc(-c2oc3ccc(C)cc3c(=O)c2O)c1 -4.63%
Cc1ccc(Cn2c(CNC(=O)c3ccc(Cl)c([N+](=O)[O-])c3)nc3cccnc32)cc1 2.42%
CCOc1cc(CNC(=O)Cn2ncn3c(cc4cc(F)ccc43)c2=O)cc(OCC)c1OCC 0.777%
CC(=O)c1ccc(NC(=O)CC2Nc3cc(C)c(C)cc3NC2=O)cc1 (stereo not given) -5.41%
Cc1ccccc1C(=O)NNc1ncnc2c1cnn2-c1cccc(Cl)c1 -21.4%
COc1ccc(N2C(=O)CSC23C(=O)N(CC(N)=O)c2ccccc23)cc1 (stereo not given) -2.15%
CCN(Cc1ccccc1)S(=O)(=O)c1ccc(F)c(C(=O)Nc2cc(C(F)(F)F)ccc2Cl)c1 7.74%
COC(=O)Cc1c(C)nc2nc(-c3ccc(C)cc3)[nH]n2c1=O -6.26%
O=C(Nc1cc(C(F)(F)F)ccc1Cl)c1cnn(-c2ccccc2)c1-n1cccc1 -5.14%
CC(C)c1ccc(N2C(=O)N(Cc3ccccc3Cl)c3ccccc3S2(=O)=O)cc1 7.77%
COc1ccccc1C1CC(=O)N(c2cccc(C(F)(F)F)c2)C2=C1C(=O)OC2 (stereo not given) -9.76%
COC(=O)c1c(-c2ccccc2)c(-c2ccccc2)nn(C)c1=O 2.65%
COc1ccc(-n2c(=O)c3c(c4cc(OC)ccc4n3C)n(CCC(C)C)c2=O)cc1 9.8%
COCCNC(=O)CCCn1c(SCc2ccccc2Cl)nc2c(sc3ccccc32)c1=O -4.52%
COC(=O)c1ccc([C@H]2Nc3ccc(S(=O)(=O)Nc4cccc(C)c4)cc3[C@H]3C=CC[C@H]32)cc1 -7.72%
CCN1CCSc2ccc(C(=O)NCc3ccccc3Br)cc21 4.88%
O=c1[nH]c(SCc2cccc(Cl)c2)nc2c1CCC2 1.75%
Cc1cc(CN2CCN(c3ccc(F)cc3)CC2)cs1 4.49%
Cc1c(-c2nnc(SCC(=O)Nc3ccc(Cl)cc3)o2)nnn1-c1ccc(F)cc1 6.58%
Cc1cc(Br)cc2c(C(=O)OCC(=O)c3ccccc3)cc(-c3ccccc3)nc12 8.46%
Cc1cccc(N(CC(N)=O)C2SC(=O)N(Cc3cccc(C(=O)O)c3)C2=O)c1 (stereo not given) 13.3%
COc1ccccc1N1CCN(C(=O)CCS(=O)(=O)c2cc(Br)cc3c2N(C(C)=O)CC3)CC1 -7.69%
COc1ccc(Cn2c(CO)cnc2SCc2cccc(C)c2)cc1 -14.8%
Cc1nc(N2CCCC2)ncc1C(=O)N1CCN(c2ccccc2F)CC1 -19.1%
COc1ccc(CNC(=O)c2cc3c(=O)n(C)c4ccccc4c3n2C)c(OC)c1 9.62%
O=C(COc1ccc(Cl)cc1)NCC(c1ccco1)S(=O)(=O)c1ccc(Cl)cc1 (stereo not given) -9.28%
Cc1ccc(NC(=O)c2nnn(CC(=O)Nc3ccc(C)c(Cl)c3)c2N)c(C)c1 1.84%
CCS(=O)(=O)c1c(Nc2cc(C)ccc2C)sc(C(=O)c2ccccc2)c1N 9.97%
COc1ccc(CCC(=O)c2c(O)cc(O[C@@H]3O[C@H](CO)[C@@H](O)[C@H](O)[C@@H]3O[C@@H]3O[C@@H](C)[C@H](O)[C@@H](O)[C@@H]3O)cc2O)cc1O -1.96%
O=c1c2ccccc2nc(-c2ccc(Cl)cc2)n1CCCOc1ccccc1F 3.35%
COc1ccccc1CCNC(=O)CCc1c(C)c2cc3c(C)c(C)oc3cc2oc1=O 0.133%
Cc1ccc(Cl)cc1NC(=O)CN1C(=O)COc2ccc(S(=O)(=O)N3CCCCCC3)cc21 -2.32%
Cc1cc(OCC(=O)N(Cc2ccc(N(C)C)cc2)C2CCS(=O)(=O)C2)cc(C)c1Cl (stereo not given) -0.378%
CC(C)c1ccc(NC(=O)CC2Oc3ccccc3NC2=O)cc1 (stereo not given) -6.54%
O=C(OC1C[C@H]2CC[C@@H](C1)[N+]21CCCC1)C(O)(c1ccccc1)c1ccccc1 (stereo not given in full) 0.622%
COc1ccc(NC(=O)Cn2c(=O)n(-c3ccc(OC)cc3)c(=O)c3ccc(C(=O)NCc4ccc(C)cc4)cc32)cc1 -17.3%
CCN(C(=O)C(Cc1ccccc1)NS(=O)(=O)c1cccc2nsnc12)c1ccccc1 (stereo not given) 0.812%

outcome, inactive:
CC(C)COc1ccc(C(=O)Nc2nnc(S(=O)(=O)N(C)Cc3ccco3)s2)cc1
CCC(C)NC(=O)Cn1c(=O)n(-c2ccc(OC)c(OC)c2)c(=O)c2ccccc21 (stereo not given)
COc1ccc2cc(CCNS(=O)(=O)c3ccc(C)cc3)c(=O)[nH]c2c1
CCOC(=O)C1CCN(C(=O)c2c(C)nn(-c3ccc(F)cc3)c2-n2cccc2)CC1
COc1cc(NC(=O)Cn2ccc3ccccc3c2=O)cc(OC)c1OC
CCOCCCn1c(SCC(=O)Nc2ccc(CC)cc2)nc2ccccc2c1=O
Cc1noc(C)c1S(=O)(=O)N(CC(=O)NCCc1ccc(Cl)cc1)c1ccc(C(C)C)cc1
CCc1ccc(NC(=O)C2CCN(S(=O)(=O)c3cccc(-c4noc(C)n4)c3)CC2)cc1
CCOc1cccc2sc(NC(=O)CS(=O)(=O)c3ccc(C)cc3)nc12
CCOc1ccc(CCNC(=O)c2cnc3sc(N4CCCCC4)nn3c2=O)cc1
COc1ccc(-n2c(=O)c3sc4ccccc4c3n(CC(=O)NC3CCCCC3)c2=O)cc1
CCCCOc1ccc(C(=O)N(Cc2ccco2)Cc2ccco2)cc1
CCC(=O)Nc1nnc2n1CCS2
Cc1cc(C)c2oc(-c3ccc(C)c(NC(=O)/C=C/c4ccco4)c3)nc2c1
COc1cccc(-c2nc(S(=O)(=O)c3ccccc3)c(N3CCC(C)CC3)o2)c1
CC1=C(C(=O)Nc2ccccc2)C(c2cc(Br)ccc2F)n2ncc(C(=O)Nc3ccccc3)c2N1 (stereo not given)
Cc1ccc(C(=O)n2nc(C)c(S(=O)(=O)N3CCOCC3)c2C)cc1C
COc1cc(C(=O)NCCc2csc3nc(-c4ccccc4C)nn23)cc(OC)c1OC
